# Among all 220,000 compounds or so, about 5,700 (2.6%) were called active. The shares of active, inactive and inconclusive entries below differ from those in the screen. The call rests on the fitted dose curve; in most records, active means well fitted inhibition curve with a large enough effect; inconclusive means small, poorly fitted or top-dose-only effect; inactive means no such curve, though single readings can be large or run the other way. Where the call is inconclusive, the potency comes from a doubtful curve fit.
# Molecular target: Lysine-specific demethylase 5B (Homo sapiens) (UniProt Q9UGL1)
# Sequence of UniProt Q9UGL1 (Q9UGL1 whole entry, looked up): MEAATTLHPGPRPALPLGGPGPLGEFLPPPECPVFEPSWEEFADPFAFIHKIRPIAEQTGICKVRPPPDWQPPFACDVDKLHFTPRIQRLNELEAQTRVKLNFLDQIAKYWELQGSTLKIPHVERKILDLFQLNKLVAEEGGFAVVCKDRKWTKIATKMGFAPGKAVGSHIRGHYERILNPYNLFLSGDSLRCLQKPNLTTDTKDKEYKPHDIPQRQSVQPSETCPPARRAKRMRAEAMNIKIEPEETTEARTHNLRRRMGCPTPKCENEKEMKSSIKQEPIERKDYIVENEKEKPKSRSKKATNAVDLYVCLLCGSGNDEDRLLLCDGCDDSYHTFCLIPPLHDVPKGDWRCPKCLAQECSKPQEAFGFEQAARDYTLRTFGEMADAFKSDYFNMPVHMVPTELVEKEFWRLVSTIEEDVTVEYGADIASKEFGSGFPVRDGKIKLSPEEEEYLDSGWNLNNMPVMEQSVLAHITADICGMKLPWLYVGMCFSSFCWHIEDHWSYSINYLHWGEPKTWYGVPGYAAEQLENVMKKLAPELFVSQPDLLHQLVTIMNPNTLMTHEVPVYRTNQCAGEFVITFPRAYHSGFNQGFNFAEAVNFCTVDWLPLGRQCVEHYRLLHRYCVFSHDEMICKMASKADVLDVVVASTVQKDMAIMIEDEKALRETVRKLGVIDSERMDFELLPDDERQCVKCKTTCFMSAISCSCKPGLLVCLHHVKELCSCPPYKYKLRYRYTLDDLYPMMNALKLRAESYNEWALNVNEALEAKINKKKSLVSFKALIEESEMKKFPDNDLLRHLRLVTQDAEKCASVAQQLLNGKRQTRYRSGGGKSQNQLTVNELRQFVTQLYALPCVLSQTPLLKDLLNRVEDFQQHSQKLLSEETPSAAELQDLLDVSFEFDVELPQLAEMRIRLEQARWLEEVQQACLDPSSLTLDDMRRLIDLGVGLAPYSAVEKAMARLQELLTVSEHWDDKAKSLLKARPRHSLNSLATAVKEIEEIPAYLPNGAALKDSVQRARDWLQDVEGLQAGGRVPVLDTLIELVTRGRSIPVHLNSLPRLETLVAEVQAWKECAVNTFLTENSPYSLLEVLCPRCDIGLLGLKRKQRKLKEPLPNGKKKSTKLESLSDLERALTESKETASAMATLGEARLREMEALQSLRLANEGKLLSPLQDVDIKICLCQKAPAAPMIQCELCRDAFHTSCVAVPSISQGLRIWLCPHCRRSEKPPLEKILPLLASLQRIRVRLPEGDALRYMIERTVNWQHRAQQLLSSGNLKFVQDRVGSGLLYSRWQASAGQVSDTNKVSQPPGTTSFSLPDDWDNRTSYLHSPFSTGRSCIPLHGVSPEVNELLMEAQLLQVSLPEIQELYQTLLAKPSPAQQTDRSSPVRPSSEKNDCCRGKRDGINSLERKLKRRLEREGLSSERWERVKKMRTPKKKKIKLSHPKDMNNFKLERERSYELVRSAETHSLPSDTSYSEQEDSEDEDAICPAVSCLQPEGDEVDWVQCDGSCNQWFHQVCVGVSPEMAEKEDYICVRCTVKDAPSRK
# Assay: Primary screen for KDM5B Histone Demethylases FDH-coupled qHTS; further: nearly all actives have a fitted effect of over 70% in size; on activity change, negative = inhibition: 0% is about no effect
# Settings: FDH-coupled NADH fluorescence (FDH is formaldehyde dehydrogenase); activity change, negative = inhibition: at 57.7 µM (top of the series) unless noted
# How it was run: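 Measured: NADH fluorescence change, 30 min, RT. System: KDM5BΔAP 200 nM final, H3K4me3 peptide, α-KG, Fe(II), ascorbate, NAD⁺ plus FDH, pH 7.5 HEPES. Compounds: titrated, 10 min pre-incubation with enzyme.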
# Potency means the concentration at half of the fitted maximal effect; tags describe the fitted curve by direction and shape.
SMILES,Potency,"activity change, negative = inhibition"
Cc1ccc(CC(C#N)Sc2nnc(COc3ccccc3Cl)n2C)cc1 (configuration not stated),inactive,–
CC(C)Oc1nc2ccccc2nc1N1CCC(C(=O)NCc2ccccc2Cl)CC1,inactive,–
O=C(C1CCCC1)N1Cc2ccccc2CC2(CCCN(CC3CCNC3)C2)C1 (configuration not stated),"inconclusive: 79.4 µM [inhibitor, partial curve]",–
O=C(COc1cccc(Br)c1)OCc1coc(-c2ccccc2)n1,inactive,–
COc1ccc(NC(=O)CSc2nc3c(=O)[nH]cnc3n2-c2ccc(C)cc2)cc1OC,inactive,–
Cc1cc(C)c2[nH]c(-c3ccccc3)c(-c3ccccc3)c2c1,"inconclusive: 25.1 µM [inhibitor, partial curve, poor fit]",–
Cn1cc(C(=O)NCc2ccccc2)c(=O)c2cc(S(=O)(=O)N3CCCCCC3)ccc21,"inconclusive: 2.82 µM [inhibitor, full curve, poor fit]",–
CC(C)CCNC(=O)c1cc(-c2ccncc2)cn1C,"inconclusive: 35.5 µM [inhibitor, partial curve]",–
CCc1nn(CC(=O)NC2CC2)c(=O)c2cc3ccccc3n12,"inconclusive: 25.1 µM [inhibitor, single point]",–
CC(=O)c1ccc(OCCCC(=O)Nc2ccc3c(C)cc(=O)oc3c2)cc1,"inconclusive: 12.6 µM [inhibitor, partial curve, poor fit]",–
CC(=O)N1CCN(C(C(=O)O)c2c[nH]c3ccc(NC(=O)C(C)C)cc23)CC1 (configuration not stated),inactive,–
O=C(Nc1ccc(Cl)cn1)c1cccc2c(Br)cccc12,"inconclusive: 31.6 µM [inhibitor, single point]",–
O=C(Cn1c(=O)nc(-c2ccccc2)c2cc(Cl)ccc21)NCCCc1ccccc1,"inconclusive: 25.1 µM [inhibitor, partial curve, poor fit]",–
Cc1ccccc1-n1nc(-c2c(C)nc3scc(CC(=O)NC(C)C)n3c2=O)cc1C,active: 28.2 µM,–
COc1ccc(CCNC(=O)c2cc3n(n2)CC(c2ccc(Cl)cc2)OC3)cc1OC (configuration not stated),"inconclusive: 15.8 µM [inhibitor, partial curve, poor fit]",–
COc1ccc(CNC(=O)Cc2c(C)c3c(OC)cc(C)cc3oc2=O)cc1OC,inactive,–
COc1ccc(C(=O)Nc2ccc3nc(SCC(=O)N4CCOCC4)sc3c2)cc1,"inconclusive: 20 µM [inhibitor, partial curve, poor fit]",–
COC(=O)CC(NS(=O)(=O)c1cccs1)c1ccc2c(c1)OCO2 (configuration not stated),inactive,–
Cc1cccc(C)c1NC(=O)CN(C)S(=O)(=O)c1ccc2c(c1)n(C)c(=O)c(=O)n2C,"inconclusive: 35.5 µM [inhibitor, single point]",–
Cc1cccc(-c2cc(C(=O)Nc3cccc(C)n3)c3ccccc3n2)c1,"inconclusive: 39.8 µM [inhibitor, single point]",–
CCSc1nc(=O)c2c(n1C)NC(=O)CC2c1ccc(O)cc1OC (configuration not stated),"inconclusive: 35.5 µM [inhibitor, single point]",–
Cc1ccc(-c2cc3c(=O)n(CCNC(=O)c4ccccc4F)ccn3n2)c(C)c1,inactive,–
CC(=O)c1cccc(NC(=O)Cn2c(C)c3cnn(-c4ccccc4)c(=O)c3c2C)c1,"inconclusive: 1.12 µM [inhibitor, full curve, poor fit]",–

SMILES,Potency,"activity change, negative = inhibition"
CNc1nc(-c2cc3c4c(c2)CC(=O)N4CCC3)cs1,inactive,–
O=C(O)c1ccc(/C=C/C(=O)c2ccc(N3CCOCC3)cc2)cc1,inactive,–
CCCCOc1ccc(NC(=O)COc2ccc(CC)cc2)c2cccnc12,inactive,–
COc1ccc(Cn2c(-c3ccco3)nc3c(c(=O)c4ccccc4n3C)c2=O)cc1,"inconclusive: 39.8 µM [inhibitor, partial curve, poor fit]",–
CC(C)OCCCNC(=O)c1cc(Nc2ccccc2)nc2ccccc12,"inconclusive: 28.2 µM [inhibitor, single point]",–
COc1cccc(CNC(=O)c2cccn2-c2nnc(N3CCCC3)s2)c1,"inconclusive: 28.2 µM [inhibitor, partial curve, poor fit]",–
CC(C)(C)c1noc(CN2CCN(C(=O)c3ccco3)CC2)n1,inactive,–
CCNc1ncc(C(=O)N2C[C@@H](NS(C)(=O)=O)[C@H](C(C)C)C2)cn1,"inconclusive: 28.2 µM [inhibitor, single point]",–
c1cncc(O[C@H]2COCCN(C3CCC3)C2)c1,"inconclusive: 31.6 µM [inhibitor, partial curve]",–
CC(C)(C)C(=O)N[C@H]1CO[C@H]2[C@@H]1OC[C@@H]2Nc1nccc(-c2cccc(F)c2)n1,"inconclusive: 35.5 µM [inhibitor, partial curve, poor fit]",–
O=C(CSc1nccnc1N1CCN(c2ccc(F)cc2)CC1)Nc1ccc(F)cc1,"inconclusive: 39.8 µM [inhibitor, single point]",–
CC(C)=CC(=O)NCCc1ccsc1,inactive,–
Cc1c(Cl)cccc1NC(=O)NCCOCCn1c(=O)oc2ccccc21,–,inconclusive: -33.6% [inhibitor]
c1coc(-c2nnc(CSc3ccc4c(c3)OCCCO4)o2)c1,inactive,–
CCOC(=O)N1CCc2c(sc(NCc3sccc3C)c2C(=O)Nc2ccccc2OCC)C1,"inconclusive: 8.91 µM [inhibitor, partial curve, poor fit]",–
C1=C(c2cc(-c3ccncc3)cn3cncc23)CCOC1,"inconclusive: 31.6 µM [inhibitor, partial curve, poor fit]",–
COc1ccccc1OC1(C(=O)O)CCN(Cc2cnn(C)c2C)CC1,"inconclusive: 20 µM [inhibitor, partial curve, poor fit]",–
O=C(c1ccccc1)N1CCC2(CC1)N=C(c1ccc(Cl)cc1)NO2,"inconclusive: 31.6 µM [inhibitor, single point]",–
O=C(NCCCc1ccccc1)c1n[nH]c2c1CN(C(=O)c1ccccc1F)CC2,inactive,–
O=C(c1ccccc1)N1CCC(c2nc(C3CCOCC3)no2)C1 (configuration not stated),"inconclusive: 25.1 µM [inhibitor, single point]",–
O=C(c1ccc2c(c1)CC(=O)N2Cc1ccccc1)N1CCN(C2CCCCC2)CC1,inactive,–
CCN(CC)S(=O)(=O)c1ccc2oc(SCC(=O)NC3CC3)nc2c1,"inconclusive: 39.8 µM [inhibitor, partial curve, poor fit]",–
CC1=C[C@@H](CNCc2cccnc2)[C@H](C(C)C)C[C@H]1Cc1nnc(-c2ccc(N(C)C)cc2)o1,"inconclusive: 22.4 µM [inhibitor, partial curve, poor fit]",–

SMILES,Potency,"activity change, negative = inhibition"
CC(C)c1nnc(NC(=O)c2nc(S(=O)(=O)Cc3ccccc3)ncc2Cl)s1,"inconclusive: 15.8 µM [inhibitor, partial curve, poor fit]",–
COCCCNc1nc2ccccc2nc1NS(=O)(=O)c1cc(Cl)ccc1Cl,"inconclusive: 22.4 µM [inhibitor, partial curve, poor fit]",–
COc1ccc(Cl)cc1NC(=O)CSc1cn(CC(=O)N2CCCC2)c2ccccc12,"inconclusive: 2.51 µM [inhibitor, partial curve, poor fit]",–
CCOc1ccc2oc(=O)cc(CN3CCOCC3)c2c1,"inconclusive: 22.4 µM [inhibitor, single point]",–
O=C(CCc1c[nH]c2ccccc12)Nc1ccc(F)c(F)c1F,inactive,–
O=C(O)c1ccc2c(c1)c(C(C(=O)O)N1CCN(c3ncccn3)CC1)cn2Cc1ccccc1 (configuration not stated),inactive,–
Cc1n[nH]c(C)c1CNC(=O)C1CCCN(C2CCN(C(=O)C3CC3)CC2)C1 (configuration not stated),"inconclusive: 14.1 µM [inhibitor, single point]",–
COCc1ccc2c(c1)c(OC(C)(C)C(=O)NCc1cnccn1)nn2Cc1cccnc1,inactive,–
O=C(O)c1ccc(N/N=C/C2=C(N3CCOCC3)C(=C\c3ccccc3)/CC2)cc1,"inconclusive: 39.8 µM [inhibitor, partial curve, poor fit]",–
COc1ncccc1-c1cc(-c2cn[nH]c2)c2cncn2c1,"inconclusive: 35.5 µM [inhibitor, partial curve, poor fit]",–
N#CCc1nn(-c2ccccc2)c2ncnc(N)c12,"inconclusive: 25.1 µM [inhibitor, single point]",–
CC(C)(O)CCc1cccc(C(=O)NCCNc2cccnc2)c1,"inconclusive: 20 µM [inhibitor, partial curve, poor fit]",–
CC(C)c1cc(NCc2csc(-c3ncccn3)n2)n2nccc2n1,inactive,–
Cc1cc2c(s1)CCc1cc(C(=O)NC3CCCCC3)sc1-2,"inconclusive: 22.4 µM [inhibitor, partial curve, poor fit]",–
COc1ccccc1-c1cc(C(=O)NC2CC2)c2cnn(C)c2n1,inactive,–
N#Cc1ccc(/C=N/Nc2ccc(F)cc2)cc1,"inconclusive: 39.8 µM [inhibitor, single point]",–
CCOc1ccc(-c2cc(C(=O)NC(C)C)c3ccccc3n2)cc1,"inconclusive: 15.8 µM [inhibitor, partial curve, poor fit]",–
Cc1ccc(NC(=O)Cn2c3ncccc3c(=O)n2-c2ccc(C)c(C)c2)cc1,"inconclusive: 25.1 µM [inhibitor, partial curve, poor fit]",–
COc1cccc(C(=O)NC2CCN(c3nnc4ccccn34)CC2)c1,active: 28.2 µM,–
CC(=O)Nc1ccc2nc(-c3ccccc3)oc2c1,inactive,–
O=C1CCN(C(=O)c2cccnc2)CCCC(c2nc(-c3ccccc3)no2)CCN1 (configuration not stated),"inconclusive: 35.5 µM [inhibitor, partial curve, poor fit]",–

# Reference: PubChem BioAssay AID1347165 (National Center for Advancing Translational Sciences (NCATS), 2019)
